Where “and” joins values, the source holds several entries; their conditions need not be identical. Equal values may be shown once. Inconclusive means that the source gave no clear call. Such entries were picked first, then a sample of the others. Potencies beside an inconclusive call are fits to weak or partial responses and may not hold up. A structure can be active in one record and inactive in another. Calls of active or inactive are those of the source. Unless noted, calls come from the whole dose curve; as a rule, active = well fitted curve in the direction sought with a large enough effect in the repeat runs; inconclusive = weak or mixed curves; inactive = no such curve, though single readings can be large; an effect the other way counts as inactive or inconclusive.
Columns and labels:
[1] = biological target: Progesterone receptor (Homo sapiens) (UniProt P06401); experiment: qHTS assay to identify small molecule agonists of the progesterone receptor (PR) signaling pathway (AID 1346784; calls by dose curve; note: nearly all actives have a fitted effect of over 30% in size; for activation: % is set by controls: 0 for no effect and ±100 for the full control effect); conditions: PR-UAS-bla HEK293T, beta-lactamase FRET ratio, 16 h; activation: at 92.4 µM (top of the series) unless noted
Summary of the method: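 PR-UAS-bla HEK 293T cells (beta-lactamase reporter under UAS) in 2% charcoal-stripped FBS, dosed with 23 nL compound after 6 hr, incubated 16hr at 37C. LiveBLAzer B/G FRET substrate added, fluorescence read after 2 hours.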

[2] = qHTS assay to identify small molecule antagonists of the progesterone receptor (PR) signaling pathway - cell viability counter screen (AID 1346798); note: nearly all actives have a fitted effect of over 50% in size
Summary of the method: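 PR-UAS-bla HEK293T cells, 3,000/well in 2% charcoal-stripped FBS medium, dosed with compounds plus R5020 agonist and incubated 16 h at 37C. Viability then measured in the same wells by CellTiter-Glo luminescence after 30 min at RT.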

[3] = qHTS assay to identify small molecule agonists of the progesterone receptor (PR) signaling pathway - cell viability counter screen (AID 1346799; calls by dose curve; note: nearly all actives have a fitted effect of over 45% in size)
Summary of the method: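 Counter screen in the PR-UAS-bla HEK293T wells (2% charcoal-stripped FBS, 16 h compound exposure at 37 C) after the bla read. CellTiter-Glo added, 30 min at room temperature, luminescence read as cell viability.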

[4] = biological target: Thyrotropin-releasing hormone receptor (Homo sapiens) (UniProt P34981); experiment: qHTS assay to identify small molecule antagonists of the thyrotropin-releasing hormone receptor (TRHR) signaling pathway (AID 1346877; active = well fitted inhibition curve with a large enough effect in the repeat runs, not every such curve was filed as active; inconclusive = weak or mixed curves)
Summary of the method: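 Following an 18 h incubation at 37 °C and a 2 h calcium dye load, TRHR-HEK293 cells were exposed to compound (5 min, room temperature) and challenged with TRH, 1 nM final.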

[5] = qHTS assay to identify small molecule antagonists of the TGF-beta/Smad signaling pathway (AID 1346924; active = well fitted inhibition curve with a large enough effect in the signal ratio in the repeat runs, not every such curve was filed as active; inconclusive = weak or mixed curves; the % refers to the signal ratio); conditions: SBE-bla HEK293T, TGF-beta/Smad reporter, beta-lactamase ratio; activity, negative = inhibition: at 76.8 µM (top of the series) unless noted
Summary of the method: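 SBE-bla HEK 293T cells were plated overnight, then received compound in DMSO plus TGF-beta1 (added as a 0.25 ng/mL solution) and were incubated 5 h at 37 C. Beta-lactamase reporter activity was read after 2 h at room temperature with LiveBLAzer B/G FRET substrate (ex 405, em 460/530 nm).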

[6] = Human pregnane X receptor (PXR) small molecule agonists, qHTS cell viability counter screen (AID 1346977); note: nearly all actives have a fitted effect of over 50% in size
Summary of the method: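 PXR-Luc HepG2 cells (2,000/well, 5% charcoal-stripped FBS) preincubated 5 hr, then exposed to compounds 24 hr at 37 C. Viability read in the same wells by CellTiter-Fluor fluorescence, reagent added at 23 hr, 1 hr incubation.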

[7] = biological target: Progesterone receptor (Homo sapiens) (UniProt P06401); experiment: qHTS assay to identify small molecule antagonists of the progesterone receptor (PR) signaling pathway (AID 1346795; active = well fitted inhibition curve with a large enough effect in the signal ratio in the repeat runs, not every such curve was filed as active; inconclusive = weak or mixed curves; the % refers to the signal ratio; for activity change, negative = inhibition: % is set by controls: 0 for no effect and ±100 for the full control effect); conditions: PR-UAS-bla HEK293T, beta-lactamase FRET ratio, 16 h
Summary of the method: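 PR-UAS-bla HEK293T cells with beta-lactamase reporter under UAS control, in 2% charcoal-stripped FBS, treated with compounds plus 1 nM promegestone (R5020, final) for 16 hr at 37C. Read-out: FRET beta-lactamase substrate fluorescence after 2 hr at room temperature.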

[8] = qHTS assay to identify small molecule antagonists of the TGF-beta/Smad signaling pathway - cell viability counter screen (AID 1346824); note: nearly all actives have a fitted effect of over 50% in size
Summary of the method: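 SBE-bla HEK 293T cells, incubated overnight, then compound plus 0.25 ng/mL TGF-beta1 (stock added) for 5 hr at 37 C. Viability was read in the same wells by CellTiter-Glo luminescence after 30 min at room temperature.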

[9] = qHTS assay to identify small molecule agonists of the TGF-beta/Smad signaling pathway - cell viability counter screen (AID 1346829); note: nearly all actives have a fitted effect of over 45% in size
Summary of the method: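 Luminescence from CellTiter-Glo, read after a 30 min room-temperature incubation, gives cell viability of SBE-bla HEK 293T cells treated 5 hr with compounds at 37 C.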

[10] = qHTS assay to identify small molecule agonists of the TGF-beta/Smad signaling pathway (AID 1346859; active = well fitted activation curve with a large enough effect in the signal ratio in the repeat runs, not every such curve was filed as active; inconclusive = weak or mixed curves; the % refers to the signal ratio); conditions: SBE-bla HEK293T, TGF-beta/Smad beta-lactamase reporter, 5 h; activation: at 76.8 µM (top of the series)
Summary of the method: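 SBE-bla HEK293T cells plated overnight, then compound exposure for 5 h at 37 C. Beta-lactamase reporter read with LiveBLAzer B/G FRET substrate after 2 h at room temperature, fluorescence at 405 nm excitation, 460/530 nm emission.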

[11] = activity change, negative = inhibition: at 92.4 µM (top of the series) unless noted
Potency is the fitted concentration of half-maximal effect; tags give direction and shape of the fitted curve or compound fluorescence and quenching.

Chain of UniProt P06401 (P06401 whole entry, looked up): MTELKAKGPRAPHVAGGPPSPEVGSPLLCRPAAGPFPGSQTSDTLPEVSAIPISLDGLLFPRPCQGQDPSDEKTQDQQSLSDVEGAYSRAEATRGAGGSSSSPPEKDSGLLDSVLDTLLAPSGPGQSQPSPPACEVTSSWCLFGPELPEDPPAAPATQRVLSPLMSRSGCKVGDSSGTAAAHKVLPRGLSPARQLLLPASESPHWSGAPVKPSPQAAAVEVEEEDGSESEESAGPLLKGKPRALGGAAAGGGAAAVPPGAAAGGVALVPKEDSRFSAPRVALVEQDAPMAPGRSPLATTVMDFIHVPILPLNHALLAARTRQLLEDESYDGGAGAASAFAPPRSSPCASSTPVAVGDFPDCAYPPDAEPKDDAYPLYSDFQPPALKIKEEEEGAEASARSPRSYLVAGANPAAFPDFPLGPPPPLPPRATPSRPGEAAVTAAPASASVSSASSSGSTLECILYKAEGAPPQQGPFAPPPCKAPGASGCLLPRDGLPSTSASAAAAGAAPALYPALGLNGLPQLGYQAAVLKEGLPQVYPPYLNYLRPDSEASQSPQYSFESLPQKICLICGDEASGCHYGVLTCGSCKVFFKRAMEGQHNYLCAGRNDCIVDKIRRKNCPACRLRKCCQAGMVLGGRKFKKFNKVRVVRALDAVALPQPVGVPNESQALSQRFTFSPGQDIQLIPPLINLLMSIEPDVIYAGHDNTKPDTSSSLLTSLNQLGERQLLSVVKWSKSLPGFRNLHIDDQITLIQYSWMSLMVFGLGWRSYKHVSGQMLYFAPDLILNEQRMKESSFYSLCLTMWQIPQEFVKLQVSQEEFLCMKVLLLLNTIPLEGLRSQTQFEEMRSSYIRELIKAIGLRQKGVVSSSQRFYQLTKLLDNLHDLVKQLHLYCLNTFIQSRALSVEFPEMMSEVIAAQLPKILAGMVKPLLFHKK
Chain of UniProt P34981 (P34981 whole entry, looked up): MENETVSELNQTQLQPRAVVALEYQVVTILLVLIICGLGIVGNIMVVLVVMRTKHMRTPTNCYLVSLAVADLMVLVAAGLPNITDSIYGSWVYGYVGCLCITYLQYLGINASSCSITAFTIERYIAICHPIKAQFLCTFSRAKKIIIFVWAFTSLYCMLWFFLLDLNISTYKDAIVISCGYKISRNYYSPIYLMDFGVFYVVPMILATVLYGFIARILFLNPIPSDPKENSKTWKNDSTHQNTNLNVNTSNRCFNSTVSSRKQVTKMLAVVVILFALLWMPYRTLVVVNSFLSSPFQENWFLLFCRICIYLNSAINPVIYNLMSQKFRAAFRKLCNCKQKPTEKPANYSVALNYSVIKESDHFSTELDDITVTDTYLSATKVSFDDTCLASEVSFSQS

For `Clc1ccccc1C(c1ccccc1)(c1ccccc1)n1ccnc1`, the Potency [1] was inconclusive: 13.7 µM [cytotoxic, full curve], the activation [1] was inconclusive: -11% [at 42.5 µM] and the Potency [2] was active: 5.45 µM and active: 29.8 µM. For the same compound, the Potency [3] was active: 7.7 µM and inconclusive: 33.5 µM [cytotoxic, single point], the Potency [4] was inconclusive: 33.8 µM [inhibitor, single point] and the Potency [5] was inconclusive: 54.9 µM [cytotoxic, single point]. The activity, negative = inhibition [5] was inconclusive: -4.14% [at 35.3 µM] and the Potency [6] was inconclusive: 33.5 µM [cytotoxic, single point].

For `CCCCCCCOC(=O)c1ccc(O)cc1`, the Potency [1] was inconclusive: 43.3 µM [cytotoxic, partial curve], the activation [1] was inconclusive: -13% and the Potency [7, 11] was active: 24.4 µM and active: 38.6 µM. For the same compound, the Potency [8] was inconclusive: 61.7 µM [cytotoxic, partial curve, poor fit] and the Potency [6] was “inactive and inconclusive: 68.6 µM [cytotoxic, single point]”.

For `O=C(Nc1ccc(Cl)cc1)Nc1ccc(Cl)c(C(F)(F)F)c1`, the Potency [1] was inconclusive: 7.5 µM [cytotoxic, partial curve], the Potency [7, 11] was inconclusive: 29.8 µM [falling, single point] and the Potency [2] was inconclusive: 16.8 µM [cytotoxic, partial curve, poor fit]. The Potency [3] was inconclusive: 0.335 µM [cytotoxic, full curve, poor fit], the Potency [8] was inconclusive: 7.56 µM [cytotoxic, full curve] and the Potency [9] was active: 15.1 µM.

With `CCCCCCCCCCCCCCCC[N+](C)(C)Cc1ccccc1` the Potency [1] was inconclusive: 62.2 µM [cytotoxic], the activation [1] was inconclusive: -15.7% and the Potency [7, 11] was inconclusive: 79.4 µM and inconclusive: 55.5 µM. For the same compound, the Potency [2] was inconclusive: 35.5 µM [cytotoxic, partial curve, poor fit] and active: 24.8 µM and inconclusive: 5.96 µM [cytotoxic, full curve], the Potency [3] was active: 10 µM and active: 12.4 µM and active: 6.68 µM and the Potency [8] was active: 56.7 µM and active: 49.8 µM and inconclusive: 16.9 µM [cytotoxic, partial curve]. The Potency [9] was active: 45 µM and active: 39.6 µM and active: 19 µM, the Potency [10] was inconclusive: 71.4 µM and inconclusive: 55.9 µM and the Potency [6] was inconclusive: 79.4 µM [cytotoxic, single point] and inconclusive: 62.2 µM [cytotoxic, single point] and inconclusive: 33.5 µM [cytotoxic, single point].

For `CCCCC(CC)COC(=O)CC(C(=O)OCC(CC)CCCC)S(=O)(=O)O` (centres undefined), the activation [1] was inconclusive: 4.63%, the Potency [7, 11] was inconclusive: 68.6 µM and the activity change, negative = inhibition [7, 11] was inconclusive: -32.9%. The Potency [3] was active: 29.5 µM and inconclusive: 13.7 µM [cytotoxic], the Potency [8] was inconclusive: 33.4 µM [cytotoxic, partial curve] and inconclusive: 61.6 µM [cytotoxic, partial curve, poor fit] and the Potency [10] was inconclusive: 38.9 µM [falling, partial curve, poor fit].

In the case of `C=CC(=O)OCC(CO)(COCC(COC(=O)C=C)(COC(=O)C=C)COC(=O)C=C)COC(=O)C=C`, the activation [1] is reported as inconclusive: -17.4%, the Potency [7, 11] is reported as active: 6.04 µM and the Potency [2] is reported as active: 15.2 µM. For the same compound, the Potency [3] was active: 15.2 µM and the Potency [8] was active: 48.4 µM.

For `O=C1C=CC(=O)N1c1ccccc1`, the Potency [1] was inconclusive: 61.1 µM [cytotoxic, single point], the Potency [7, 11] was inconclusive: 68.6 µM [falling, single point] and the Potency [2] was active: 68.6 µM. For the same compound, the Potency [3] was active: 61.1 µM, the Potency [8] was inconclusive: 61.6 µM [cytotoxic, single point] and the Potency [9] was inconclusive: 54.9 µM [cytotoxic, single point].

In the case of `NC(=O)N/N=C/c1ccc([N+](=O)[O-])o1`, the Potency [1] is reported as inconclusive: 68.6 µM [falling, single point], the Potency [7, 11] is reported as inconclusive: 27.3 µM [phenotype inactive, partial curve, poor fit] and the activity change, negative = inhibition [7, 11] is reported as inconclusive: 3.6% [at 42.5 µM]. For the same compound, the activity change, negative = inhibition ([7]; at 92.4 µM (top of the series)) was inactive: 5.31%, the Potency [2] was inconclusive: 61.1 µM [cytotoxic, partial curve, poor fit] and the Potency [3] was inconclusive: 3.06 µM [rising, full curve, poor fit]. For the same compound, the Potency [8] was inconclusive: 54.9 µM [cytotoxic, partial curve, poor fit], the activity, negative = inhibition [5] was inconclusive: -22.6% and the Potency [6] was active: 27.3 µM and active: 26.6 µM.
